The values below come from publication PMC10726135.

This is one part of the list. At the low end of the ranking, values are background and their order means little. Measured with an extract: partners may take part in the binding.

This test has as its target T1, HNF4alpha8 (COS-7 nuclear extract) (UniProt P41235-5).
T1 sequence: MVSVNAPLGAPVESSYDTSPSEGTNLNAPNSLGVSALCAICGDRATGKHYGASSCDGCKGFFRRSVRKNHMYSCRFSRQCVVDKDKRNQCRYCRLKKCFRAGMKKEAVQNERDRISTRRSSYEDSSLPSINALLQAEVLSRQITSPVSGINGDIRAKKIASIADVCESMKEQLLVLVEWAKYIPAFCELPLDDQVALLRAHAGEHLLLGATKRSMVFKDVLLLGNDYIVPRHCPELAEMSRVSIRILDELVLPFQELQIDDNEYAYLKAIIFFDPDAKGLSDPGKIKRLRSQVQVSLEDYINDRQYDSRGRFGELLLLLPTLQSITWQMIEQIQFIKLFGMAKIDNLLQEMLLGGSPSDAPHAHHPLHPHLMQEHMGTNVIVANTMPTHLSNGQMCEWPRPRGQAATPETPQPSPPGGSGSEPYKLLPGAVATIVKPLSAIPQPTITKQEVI
As to the kind of experiment: protein-binding microarray. As to conditions: COS-7 nuclear extract on double-stranded Agilent 4x180k PBM; binding buffer, salt, pH and temperature not given; high values mean tight binding; double strand, one strand shown; sequences stand for … in …GCCTAGGGAGATTAGAGTATCGGTCGA
For the sequence CTGGGCCCTGCCTGACCTGCCCTTTGTCCC, the binding signal (log2 normalized intensity) came to 6.91.

For CATTGTGTGCAGACCTTCTCTGGCCCTCAC, the binding signal (log2 normalized intensity) is -0.0778.

Regarding TGACCTGGAGCATGACCCTTTGCAGGTGGG, the binding signal (log2 normalized intensity) was 2.44.

As to ATTAAATCTTGTTGGCTTGACGCTAACTTC, the binding signal (log2 normalized intensity) is -1.2.

In the case of ACCCTGCAATTCCCCTGGGCCCACGGCTCT, the binding signal (log2 normalized intensity) is -1.35.

On to TAGGCATTCTTAGACACAGTCTGAGATAGA, for which the binding signal (log2 normalized intensity) was -1.35.

For GCTCAGTCCAAGTCCAAAGGTCTGAGAACC, the binding signal (log2 normalized intensity) stood at 4.88.

Consider TGGGAGCCTTGCACACTCGCCTGGCTCCCC, for which the binding signal (log2 normalized intensity) is -1.29.

On to CCTTCACTATTTTCAAAGGTCAACATACAG, for which the binding signal (log2 normalized intensity) was found to be 3.49.

With GGATTTTTTCTTGGACTTTGGTCATCCTTT, the binding signal (log2 normalized intensity) was 7.39.

For the sequence TAAAATTCCCTGTGGAATTTTAAGCTTCAC, the binding signal (log2 normalized intensity) was -1.08.

With GTTCCCCCGTGTAGACACTCATCCCTTGCA, the binding signal (log2 normalized intensity) was determined as 2.07.

As for AGGTGAAGGCTGACCACGGGGGCCGCTCTC, the binding signal (log2 normalized intensity) is -1.27.

For the sequence CCCCCTATCCCAAGACATCAATTAACTTGT, the binding signal (log2 normalized intensity) stood at 3.09.

Take TACACAACAGCACTTGTGCAGTTTTTCTGC: the binding signal (log2 normalized intensity) was -1.33.

TAAGATACTGAAATGCCAAAAAAGAAGAAG: the binding signal (log2 normalized intensity) was -1.35.

In the case of GAGGGAACGCCCGACGCGAAGGCAGTGTGG, the binding signal (log2 normalized intensity) was -1.16.

In the case of AGCATGGAGATGAGTGGGTTCACTTTGAGC, the binding signal (log2 normalized intensity) came to 1.77.

For CCCACCTCTCAGACAGAGCTGGTCTGTGCT, the binding signal (log2 normalized intensity) is -1.28.

With TTGTTGTTATCCATTTAAAAAGTATTTATT, the binding signal (log2 normalized intensity) amounted to 0.32.

Regarding CCAGTTTTCCCAAAGGAGCTTTATTGGTTC, the binding signal (log2 normalized intensity) came to 1.15.

With TTGGAATGTTCCAAGACCTTTGAAGCTTGC, the binding signal (log2 normalized intensity) was 2.94.

With GGCCATGTGCAGAGGAGGGGGCAGGAGCCC, the binding signal (log2 normalized intensity) is -1.3.

On to GTTTTGTGAGTTTTCTTCTGAAATTGCTCA, for which the binding signal (log2 normalized intensity) was -0.253.

TCGCAGTCATAAATACTCATTATGTTGCTG: the binding signal (log2 normalized intensity) was -1.2.

For TGGAAGAGCCTGCAAGGGAGACCAGGAAAG, the binding signal (log2 normalized intensity) was -1.19.

Regarding GACGAGCTGTCACTGGCTGCTGCTCAGGAG, the binding signal (log2 normalized intensity) is -1.23.

Turning to GCCCTTTGCCCTTTGCCCAACCCTCTCCCA, the binding signal (log2 normalized intensity) worked out at 6.2.

Take TTGATCAGGGACCTTTGTTCCTTTACACAT: the binding signal (log2 normalized intensity) worked out at 4.02.

Turning to CTTTGGAACCTGCCCTCTGTCCCATGGTGT, the binding signal (log2 normalized intensity) amounted to 2.85.

Take TCCCCTCCCTCAGCTCTGCCCAGACCTTAT: the binding signal (log2 normalized intensity) is 3.84.

Regarding TGTGCAAAATACCTGGAAGTATTTATTGAG, the binding signal (log2 normalized intensity) was found to be 0.655.

Consider GTTATCTCATTACTCTGCATAAGGACCTCC, for which the binding signal (log2 normalized intensity) worked out at 1.12.

As for CCAAGGTTCTCCAGGGACCCCCCGACCCCA, the binding signal (log2 normalized intensity) stood at 5.59.

GTGCTCCCTCCCCCTGCATGAACCTTTGCT: the binding signal (log2 normalized intensity) was determined as 3.72.

As to AGAAAAAGGAGCAGATGGCTAGTGACTCAG, the binding signal (log2 normalized intensity) is -1.31.

For the sequence CTGCACCCTACGTAAATGCACGGAAGCCTT, the binding signal (log2 normalized intensity) is -1.3.

On to CTGGCCTGCTGGGAACTCAGGATCAAACAG, for which the binding signal (log2 normalized intensity) was -1.23.

As for CTTTATCTCTCTCTCTTTCTTCCCCCACTC, the binding signal (log2 normalized intensity) is 4.52.

On to TTTGGCTGGTAGAGCAGGTTTCAGAGGCTC, for which the binding signal (log2 normalized intensity) is -1.01.

For the sequence AGAGTTAGCTAAGCTTCACTGACATTCCAG, the binding signal (log2 normalized intensity) is -0.937.

On to GTCCGGCAGAGCTATGGAATTTTGGCCTTT, for which the binding signal (log2 normalized intensity) was found to be 3.88.

For CTATTTCTGACCTTTGCACCAGAGATAATA, the binding signal (log2 normalized intensity) came out at 6.97.

Regarding GGATCAATGGATCCACTCAGTATGGCAACC, the binding signal (log2 normalized intensity) was -1.11.

Take AGGGCTGAAGGTTAATTCGCTCATCAATGG: the binding signal (log2 normalized intensity) is 1.16.

For the sequence TTCCACTGACTTGCAACCTTTGCCCTGTTG, the binding signal (log2 normalized intensity) came to 7.2.

As for GGCCAGATAAAGCAGGTTGTACCTTGACCC, the binding signal (log2 normalized intensity) was 9.73.

With TCCTCAGGGAGGAAGGCAACCACAGCCTCT, the binding signal (log2 normalized intensity) is -1.24.

Turning to AAGTCCAAAGTTCTTGGCCAGGCATGGAGA, the binding signal (log2 normalized intensity) stood at 2.75.

Turning to CCCCACCCCACTCCACCTACGCTACGCACC, the binding signal (log2 normalized intensity) stood at 4.25.

In the case of ACCCAGAGCCCCACCGTTGTGTAATCTCTT, the binding signal (log2 normalized intensity) turned out to be 1.41.

For the sequence TGAAATATGCCCAGAGCTTTGTTCTGTTCC, the binding signal (log2 normalized intensity) was 0.565.

For TGTTGCTCTCTTGCCATTCGTGGATGAGCG, the binding signal (log2 normalized intensity) was -1.33.

For CTGGGAGGTAAACTGTAAACCTTTGAAATG, the binding signal (log2 normalized intensity) turned out to be 1.12.

Take CTTGAGGAGCCCTATCCGCAGCTGCTGACA: the binding signal (log2 normalized intensity) was -1.37.

As for TATCAGCTCTCCGTGGACTTTGCCCCCTAC, the binding signal (log2 normalized intensity) was determined as 11.3.

As to TATGTGTGTGCTTTAACAAGGTGTGTTTGA, the binding signal (log2 normalized intensity) came out at 1.75.

For TCAGACAAGTTGCAGGGATGGACTTTAATC, the binding signal (log2 normalized intensity) came to 7.17.

Turning to ATGGGCCCCAGTAAAAACAGTGGGCCTTAA, the binding signal (log2 normalized intensity) was -1.37.

As to AGATAAAAAGGCTAGAGCGCGCTGGAATCT, the binding signal (log2 normalized intensity) is -1.32.

Consider CCTTTGAGATAGCTATGATTATCCTTATCT, for which the binding signal (log2 normalized intensity) is -0.293.

Consider GAGTGTATAGTGGCACTGTTATGACCCATT, for which the binding signal (log2 normalized intensity) was found to be 2.73.

Regarding AGGAAACTCTTTCCTAACAGTGAATGTTTC, the binding signal (log2 normalized intensity) was found to be 0.554.

GAGGACTTTGATCAGCAATGGAGAGTGATC: the binding signal (log2 normalized intensity) turned out to be 3.05.

Consider GCTGCTCAGTTTAAGTCAAAATATAAGGTC, for which the binding signal (log2 normalized intensity) came out at 1.76.

Consider ACTTGAAGACATTCCAAGAAGAGCCAATAG, for which the binding signal (log2 normalized intensity) was -1.32.

CCTAAACAGCAACTGTAGTGCATAGTGGGT: the binding signal (log2 normalized intensity) was determined as 0.567.

Consider ACTGTCTAGCTGTGTAACCCTGGACAAGTT, for which the binding signal (log2 normalized intensity) stood at 0.855.

Turning to GACACCTTCAGGGCTGAGCCCACAGTCCAG, the binding signal (log2 normalized intensity) is -1.36.

On to GCTGTGTGGCATGGTGTTTTGCCTTACACA, for which the binding signal (log2 normalized intensity) was determined as 0.866.

TAGGGCCCATGCCCTTAGCCACTGCATGAT: the binding signal (log2 normalized intensity) was -0.914.

TGAACTGACTGGGGTTAACGTCCAAAGGTA: the binding signal (log2 normalized intensity) was 3.29.
